The results in this text go back to a collection of fitness landscapes (doi:10.1016/j.celrep.2020.107928).

Over roughly 81,000 sequences, “one-hybrid fitness for binding NBS DNA” has its median near -0.1; the highest 2% begin near 0.36. This is one part of the list.

The chains are these.
B1: Caulobacter ParB omega fusion; a variant is named by its letters at X, in order, B8GW30 (parent)
chain: MESVVVGEPGMSEGRRGLGRGLSALLGEVDAAPAQAPGEQLGGSREAPIEILQRNPDQPRRTFREEDLEDLSNSIREKGVLQPILVRPSPDTAGEYQIVAGERAWRAAQRAGLKTVPIMVRELDDLAVLEIGIIENVQRADLNVLEEALSYKVLMEKFERTQENIAQTIGKSXSHVANXMRLLXLPDEVQSYLVSGELTAXHARAIAAAADPVALAKQIIEGGLSVRETEALARKAPNLSAGKSKGGRPPRVKDTDTQALESDLSSVLGLDVSIDHRGSTGTLTITYATLEQLDDLCNRLTRGI

Variants of B1 are the subject of this experiment. Briefly: one-hybrid fitness for binding NBS DNA (the Noc-binding site; scaled: cognate 1, non-cognate 0); higher = stronger binding. Conditions: with NBS DNA site. A digest of the protocol:
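Fitness here means the log change in variant-to-wild-type read ratio between plasmids sequenced before and after selection. That scale was set so cognate equals 1 and non-cognate equals 0. The selection was a bacterial one-hybrid screen of Caulobacter ParB libraries, four specificity codons randomised, in E. coli USO carrying a HIS3 reporter with the site 19 bp from the promoter, grown 48 hours at 37°C on M9-minus-histidine with 0.1 mM IPTG and 5 mM 3-AT.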
As to DERH, the “one-hybrid fitness for binding NBS DNA” value was at most 0.2.
As to QHYC, the “one-hybrid fitness for binding NBS DNA” value is at most 0.2.
For the variant MPKV, the “one-hybrid fitness for binding NBS DNA” value was at most 0.2.
For GTFT the value was at most 0.2.
For PHRC the value was at most 0.2; for HYDS, at most 0.2.
Consider ATHC, for which the “one-hybrid fitness for binding NBS DNA” value was at most 0.2.
For LCKC the value was at most 0.2.
For QMLR the value was 0.5.
Consider RGSW, for which the “one-hybrid fitness for binding NBS DNA” value was at most 0.2.
For the variant GFHT, the “one-hybrid fitness for binding NBS DNA” value is at most 0.2.
For QILV the value was at most 0.2.
For FNKS the value was at most 0.2; for SYYY, at most 0.2.
Regarding TAGD, the “one-hybrid fitness for binding NBS DNA” value is at most 0.2.
For EVAF the value was at most 0.2; for MADY, at most 0.2.
For HQWR the value was at most 0.2; for EMSI, at most 0.2.
For AMDG the value was at most 0.2; for QGRR, 0.33; for PEQW, at most 0.2.
Regarding DFQC, the “one-hybrid fitness for binding NBS DNA” value is at most 0.2.
For GPHA the value was at most 0.2; for SATI, at most 0.2.
For AHRR the value was at most 0.2.
For NYFR the value was at most 0.2; for TPCL, at most 0.2.
On to TQNY, for which the “one-hybrid fitness for binding NBS DNA” value was at most 0.2.
For RQAI the value was at most 0.2.
For LEMC, the “one-hybrid fitness for binding NBS DNA” value is at most 0.2.
For MMSR the value was at most 0.2; for CAIG, at most 0.2; for KTMC, at most 0.2.
In the case of FAYC, the “one-hybrid fitness for binding NBS DNA” value is at most 0.2.
On to WREL, for which the “one-hybrid fitness for binding NBS DNA” value was at most 0.2.
For SLLF the value was at most 0.2.
As for HLMT, the “one-hybrid fitness for binding NBS DNA” value is at most 0.2.
Turning to DMSK, the “one-hybrid fitness for binding NBS DNA” value was at most 0.2.
For WRQA the value was at most 0.2.
For PMSP the value was at most 0.2; for HSRH, at most 0.2; for RHQG, at most 0.2.
For the variant SPAT, the “one-hybrid fitness for binding NBS DNA” value is at most 0.2.
With ASKC, the “one-hybrid fitness for binding NBS DNA” value was at most 0.2.
As to PSDI, the “one-hybrid fitness for binding NBS DNA” value is at most 0.2.
Regarding FMAG, the “one-hybrid fitness for binding NBS DNA” value is at most 0.2.
With CGRY, the “one-hybrid fitness for binding NBS DNA” value is at most 0.2.
For LAVW the value was at most 0.2; for ETKC, at most 0.2; for EHLS, at most 0.2.
For EISP the value was at most 0.2; for QVND, at most 0.2.
For KRPC the value was at most 0.2; for TEVA, at most 0.2.
For ACPV, the “one-hybrid fitness for binding NBS DNA” value was at most 0.2.
For PYIV the value was at most 0.2.
For GMPR the value was at most 0.2; for GNRY, at most 0.2; for WSGT, at most 0.2.
For ATNV the value was at most 0.2; for GHAF, at most 0.2; for SYWG, at most 0.2.
Regarding RMVT, the “one-hybrid fitness for binding NBS DNA” value worked out at 0.296.
As for RCIC, the “one-hybrid fitness for binding NBS DNA” value was at most 0.2.
On to PKTF, for which the “one-hybrid fitness for binding NBS DNA” value was at most 0.2.
In the case of AYAW, the “one-hybrid fitness for binding NBS DNA” value was at most 0.2.
For the variant TCVG, the “one-hybrid fitness for binding NBS DNA” value was at most 0.2.
With REIP, the “one-hybrid fitness for binding NBS DNA” value was at most 0.2.
PARP: the “one-hybrid fitness for binding NBS DNA” value is at most 0.2.
Consider YRAA, for which the “one-hybrid fitness for binding NBS DNA” value is at most 0.2.
For KPWR the value was at most 0.2; for EQSC, at most 0.2; for TDLE, at most 0.2.
HSSH: the “one-hybrid fitness for binding NBS DNA” value was at most 0.2.
Consider CMYR, for which the “one-hybrid fitness for binding NBS DNA” value was at most 0.2.
For the variant CIRR, the “one-hybrid fitness for binding NBS DNA” value was at most 0.2.
For the variant LWVS, the “one-hybrid fitness for binding NBS DNA” value was at most 0.2.
For VVKF the value was at most 0.2; for YFAL, at most 0.2; for RMGM, at most 0.2.
For ASEP the value was at most 0.2.
Regarding DHDF, the “one-hybrid fitness for binding NBS DNA” value was at most 0.2.
Regarding PYGM, the “one-hybrid fitness for binding NBS DNA” value was at most 0.2.
Turning to PLKQ, the “one-hybrid fitness for binding NBS DNA” value is at most 0.2.
For NNWT the value was at most 0.2.
For the variant CGKC, the “one-hybrid fitness for binding NBS DNA” value was at most 0.2.
For RDIH the value was at most 0.2; for QQLF, at most 0.2; for RRGS, 0.55.
As to MLQM, the “one-hybrid fitness for binding NBS DNA” value is at most 0.2.
For GQGS the value was at most 0.2; for RPIT, at most 0.2; for QMVN, at most 0.2.
For STRM the value was at most 0.2; for VMTM, at most 0.2.
For LANF the value was at most 0.2.
In the case of DGTW, the “one-hybrid fitness for binding NBS DNA” value was at most 0.2.
